Measured values as given in PubChem BioAssay AID1768 (National Center for Advancing Translational Sciences (NCATS), 2009).
Out of some 270,000 compounds screened, about 620 (0.23%) were called active. The inconclusive results got no clear call from the source; some entries with a clear call stand among them for comparison. Calls come from the whole dose curve; as a rule, active = well fitted inhibition curve with a large enough effect in the polarisation, with a control signal flat (not every such curve was filed as active); inconclusive = small, poorly fitted or top-dose-only effect, or effect the other way, or a change in a side signal; inactive = no such curve, though single readings can be large or run the other way; the % refers to the polarisation. Potencies of inconclusive entries are doubtful fits and often do not repeat. “Side channel” marks fits to a control or component signal instead of the main read-out.

target: Menin (Homo sapiens) (UniProt O00255); experiment: qHTS Assay for Inhibitors Targeting the Menin-MLL Interaction in MLL Related Leukemias: Competition With Texas Red Labeled MLL-derived Mutant Peptide; details: fluorescence polarization; series mostly up to 61.6 µM
Potency is the fitted concentration of half-maximal effect; tags give direction and shape of the fitted curve or compound fluorescence and quenching.

UniProt O00255, sequence (O00255 whole entry, looked up): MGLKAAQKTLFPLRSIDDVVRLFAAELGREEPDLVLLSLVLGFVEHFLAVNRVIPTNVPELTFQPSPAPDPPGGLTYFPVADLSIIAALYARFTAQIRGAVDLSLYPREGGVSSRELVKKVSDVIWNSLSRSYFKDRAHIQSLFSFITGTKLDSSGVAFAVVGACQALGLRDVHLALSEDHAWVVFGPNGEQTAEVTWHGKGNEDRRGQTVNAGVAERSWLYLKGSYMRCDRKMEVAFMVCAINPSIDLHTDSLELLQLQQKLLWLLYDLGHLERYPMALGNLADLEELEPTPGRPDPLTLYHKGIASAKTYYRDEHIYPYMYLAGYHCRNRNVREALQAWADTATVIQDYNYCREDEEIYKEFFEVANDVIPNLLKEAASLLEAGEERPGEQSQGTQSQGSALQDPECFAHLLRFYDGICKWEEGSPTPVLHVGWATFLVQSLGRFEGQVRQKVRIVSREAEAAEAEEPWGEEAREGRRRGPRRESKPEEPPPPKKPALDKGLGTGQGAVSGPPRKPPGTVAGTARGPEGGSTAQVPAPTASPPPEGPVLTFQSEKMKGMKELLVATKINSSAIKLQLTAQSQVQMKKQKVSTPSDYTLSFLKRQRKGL

Potency, inconclusive:
Cc1ccc2nc3sc(-c4nnc(-c5ccccc5[N+](=O)[O-])o4)c(N)c3cc2c1 7.08 µM [quencher, side channel, full curve, poor fit]
N#Cc1cccc(-c2nccc(NCc3cccs3)n2)c1 25.1 µM [quencher, side channel, single point]
NC(=O)CSc1nnc(COc2ccccc2)n1CCc1ccccc1 10 µM [fluorescent, side channel, full curve, poor fit]
COCCCn1c(SCC(=O)Nc2ccccc2F)nnc1-c1ccoc1C 39.8 µM [inhibitor, single point]
CC1CC(C)CN(CCOc2cccc3ccccc23)C1 (stereo unspecified) 10 µM [inhibitor, partial curve]
COc1ccc(-n2cccc2/C=C2\C(=N)N3N=C(c4ccco4)SC3=NC2=O)cc1 10 µM [quencher, side channel, partial curve]
Cc1ccc(Oc2ccc(-c3nnc(-c4ccccc4)o3)cc2[N+](=O)[O-])cc1C 8.91 µM [inhibitor, partial curve]
O=Cc1cn(CCC(=O)O)nc1-c1cc2ccccc2o1 2.82 µM [inhibitor, full curve, poor fit]
Cc1ccc(S(=O)(=O)/N=C(\N)Nc2nc(C)c3ccc(C)cc3n2)cc1 4.47 µM [inhibitor, full curve, poor fit]
CC1(C)CC(=O)C2=C(C1)Nc1ccccc1NC2c1ccccn1 (stereo unspecified) 3.55 µM [inhibitor, partial curve]
COc1cc(NS(=O)(=O)c2csc(C(N)=O)c2)cc(OC)c1 3.16 µM [inhibitor, partial curve]
NC(=S)N/N=C/c1ccc(-c2cc(Cl)c(Cl)cc2Cl)o1 22.4 µM [quencher, side channel, partial curve]
O=C(NC(=S)Nc1ccc2oc(-c3cccnc3)nc2c1)c1cccc(Cl)c1 39.8 µM [inhibitor, single point]
CCc1ccc(OCC(=O)NC(NC(=S)Nc2ccccc2C)C(Cl)(Cl)Cl)cc1 (stereo unspecified) 12.6 µM [inhibitor, partial curve, poor fit]
Cn1c2c(c3ccccc31)CCN1CCC[C@]21c1ccccc1 25.1 µM [inhibitor, single point]
c1ccc2c(c1)nc(-c1ccncc1)n2CCNc1nc(CN2CCCCC2)cs1 3.55 µM [inhibitor, full curve, poor fit]
COc1cccc(Cn2nnc(C(=O)Nc3cc(C)ccc3OC)c2N)c1 3.16 µM [quencher, side channel, partial curve]
CCN(CC)S(=O)(=O)c1cc(NC(=O)CN2CCN(c3ccccn3)CC2)ccc1C 3.16 µM [fluorescent, side channel, partial curve]
O=C(Nc1ccccc1O)c1csc2c1CCCC2 14.1 µM [quencher, side channel, partial curve]
CC(=O)Nc1ccc(NC(=O)C(Cc2ccccc2)NC(=O)C2CCC(C)CC2)cc1 (stereo unspecified) 39.8 µM [fluorescent, side channel, single point]
O=C(N/N=C/c1c[nH]c2ccccc12)c1cccc(Cl)c1 25.1 µM [quencher, side channel, single point]
COc1ccc(C)cc1NC(=O)C(Sc1nnc(Nc2ccccc2F)s1)c1ccccc1 (stereo unspecified) 39.8 µM [inhibitor, single point]
O=c1c2ccccc2nc2c3ccccc3c(NCc3ccccn3)nn12 31.6 µM [inhibitor, single point]
CCC(=O)Nc1ccc(C(=O)NCc2ccccn2)cc1 39.8 µM [inhibitor, single point]
CCN1/C(=C/C=C/c2sc3ccccc3[n+]2CC)Sc2ccccc21 0.282 µM [fluorescent, side channel, full curve]
Cc1cccc(C2(c3cccc(C)c3)CC2C(=O)Nc2ccc([N+](=O)[O-])cc2O)c1 (stereo unspecified) 22.4 µM [quencher, side channel, partial curve]

Potency, inactive:
CCOc1ccc(CN2CCN(Cc3cccn3-c3ncccn3)CC2CCO)cc1 (stereo unspecified)
C=CC(C)(O)CC1[C@@]2(C)CCCC(C)(C)C2CC[C@]1(C)O (stereo partly specified)
O=c1c(-c2ccccc2)c(O)c2ccccc2n1-c1ccccc1
CC[C@H](C)[C@H](NC(=O)[C@H](Cc1ccc(O)cc1)NC(=O)[C@H](CCCNC(=N)N)NC(=O)[C@H](CCCNC(=N)N)NC(=O)[C@H](CC(C)C)NC(=O)[C@H](CCC(N)=O)NC(=O)[C@@H](NC(=O)[C@H](CCC(=O)O)NC(=O)[C@H](Cc1ccc(O)cc1)NC(=O)[C@H](CCC(N)=O)NC(=O)[C@H](C)NC(=O)[C@H](CCCNC(=N)N)NC(=O)[C@H](CCC(N)=O)NC(=O)[C@H](CCC(=O)O)NC(=O)[C@H](Cc1cnc[nH]1)NC(=O)[C@@H](NC(=O)[C@H](C)NC(=O)[C@H](Cc1ccc(O)cc1)NC(=O)[C@H](CC(=O)O)NC(=O)CNC(=O)[C@@H]1CCCN1C(=O)[C@H](Cc1ccc(O)cc1)NC(=O)[C@H](CCSC)NC(=O)[C@@H]1CCCN1C(=O)[C@H](CCC(=O)O)NC(=O)[C@H](CC(C)C)NC(=O)[C@@H]1CCCN1C(=O)[C@H](C)N)[C@@H](C)O)[C@@H](C)O)C(=O)N[C@@H](CC(N)=O)C(=O)N[C@H](C(=O)N[C@@H](CC(C)C)C(=O)N[C@H](C(=O)N[C@@H](CCCNC(=N)N)C(=O)N1CCC[C@H]1C(=O)N[C@@H](CCCNC(=N)N)C(=O)N[C@@H](Cc1ccc(O)cc1)C(N)=O)[C@@H](C)O)[C@@H](C)O
COc1cc2cc(CN(CCCN3CCOCC3)C(=O)Nc3ccccc3F)c(=O)[nH]c2cc1OC
